# Several values for one entry are separate records, joined by “and”; a condition that tells them apart may be missing. Identical values can stand only once. Hit rate of the full screen: of about 390,000 compounds, about 17,000 (4.4%) were called active. The shares of active, inactive and inconclusive entries below differ from those in the screen. Calls come from the whole dose curve; as a rule, active = well fitted inhibition curve with a large enough effect; inconclusive = small, poorly fitted or top-dose-only effect; inactive = no such curve, though single readings can be large or run the other way. Potencies of inconclusive entries are doubtful fits and often do not repeat.
# Target: Lysine-specific demethylase 4A (Homo sapiens) (UniProt O75164)
# Chain of UniProt O75164 (O75164 whole entry, looked up, the tested form may be a part): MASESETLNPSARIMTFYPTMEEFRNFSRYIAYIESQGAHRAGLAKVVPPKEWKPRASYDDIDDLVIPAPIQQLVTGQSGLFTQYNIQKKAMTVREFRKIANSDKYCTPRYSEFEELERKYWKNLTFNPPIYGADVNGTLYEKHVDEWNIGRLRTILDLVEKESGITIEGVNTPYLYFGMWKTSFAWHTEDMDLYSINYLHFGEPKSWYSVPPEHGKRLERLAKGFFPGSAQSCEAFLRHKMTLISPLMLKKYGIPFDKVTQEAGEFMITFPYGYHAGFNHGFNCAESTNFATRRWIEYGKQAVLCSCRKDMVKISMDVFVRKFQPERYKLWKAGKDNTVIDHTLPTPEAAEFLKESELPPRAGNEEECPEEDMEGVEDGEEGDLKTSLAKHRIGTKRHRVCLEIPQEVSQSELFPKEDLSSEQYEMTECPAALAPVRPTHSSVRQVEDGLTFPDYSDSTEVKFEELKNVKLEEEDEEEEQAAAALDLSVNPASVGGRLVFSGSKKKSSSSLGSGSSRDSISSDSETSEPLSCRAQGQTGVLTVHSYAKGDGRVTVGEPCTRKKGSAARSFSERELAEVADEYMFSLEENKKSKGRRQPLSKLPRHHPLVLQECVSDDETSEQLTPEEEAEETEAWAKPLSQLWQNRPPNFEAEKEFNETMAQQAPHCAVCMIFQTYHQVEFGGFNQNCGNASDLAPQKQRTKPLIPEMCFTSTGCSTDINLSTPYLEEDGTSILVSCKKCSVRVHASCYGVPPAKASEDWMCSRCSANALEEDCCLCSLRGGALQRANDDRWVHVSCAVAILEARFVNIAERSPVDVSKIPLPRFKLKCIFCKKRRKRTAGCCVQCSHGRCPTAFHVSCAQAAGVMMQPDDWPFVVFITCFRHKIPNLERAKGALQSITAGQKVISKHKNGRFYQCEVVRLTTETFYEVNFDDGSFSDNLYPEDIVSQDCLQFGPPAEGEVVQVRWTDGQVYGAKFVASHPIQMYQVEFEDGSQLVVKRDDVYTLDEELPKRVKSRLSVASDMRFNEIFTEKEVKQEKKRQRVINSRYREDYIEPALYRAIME
# Assay: qHTS Assay for Inhibitors of JMJD2A-Tudor Domain; note: nearly all actives have a fitted effect of over 50% in size
# Conditions: AlphaScreen JMJD2A-Tudor / H3K4me3 peptide binding; activity change, negative = inhibition: at 114 µM (top of the series)
# % is set by controls: 0 for no effect and ±100 for the full control effect; potency is the fitted concentration of half-maximal effect; tags give direction and shape of the fitted curve.
SMILES,Potency,"activity change, negative = inhibition"
O=C(Nc1cc([N+](=O)[O-])ccc1O)c1ccc2c(c1)C(=O)N(Cc1ccco1)C2=O,"inconclusive: 56.2 µM [inhibitor, partial curve]",
N#Cc1c(NC(=O)c2ccccc2)sc2c1CCC2,inactive,
CCCN1CCCc2cc(CN(CCCN3CCOCC3)C(=O)Nc3ccc(OCC)cc3)ccc21,active: 39.8 µM and active: 28.2 µM,
COc1ccccc1C(=O)NCC(=O)OCC(=O)Nc1nnc(-c2ccccc2)o1,"inconclusive: 3.98 µM [inhibitor, full curve, poor fit]",
C=C1CCN(c2ccc(C(=O)NCc3ccccc3)cc2[N+](=O)[O-])CC1,"inconclusive: 56.2 µM [inhibitor, partial curve]",
CCc1ccc(C2CC(=O)N(c3cccc(C(F)(F)F)c3)C3=C2C(=O)OC3)cc1 (stereo unspecified),inactive,
Cc1ccc(C)c(NC2=C(c3ccc(C(F)(F)F)cc3)C(=O)c3ccccc32)c1,"inconclusive: 3.98 µM [inhibitor, full curve]",
CC(Sc1ccccc1)C(=O)N1CCN(S(=O)(=O)c2ccccc2F)CC1 (stereo unspecified),inactive,
S=c1[nH]nc(-c2ccccc2)n1/N=C/c1cccc(Cl)c1,active: 70.8 µM,
CCc1nnc(NC(=O)c2ccc(Cl)nc2)s1,inactive,
CC(C)c1nc2cc(C(=O)N3CCNC(=O)C3c3cccc(F)c3)ccc2o1 (stereo unspecified),inactive,
O=C(N=C1SC2CS(=O)(=O)CC2N1Cc1ccccc1Cl)C1CCCO1 (stereo unspecified),inactive,
CC(=O)c1c(C)[nH]c(C(=O)Nc2nc(C)cs2)c1C,inactive,
Cc1ccc(C2=NN(C(=O)CCC(=O)O)C(c3cn(-c4ccccc4)nc3-c3ccc(C)cc3)C2)cc1 (stereo unspecified),active: 50.1 µM,
O=C(c1ccc(Cl)c([N+](=O)[O-])c1)N(Cc1ccc(Cl)cc1)C1CCS(=O)(=O)C1 (stereo unspecified),"inconclusive: 35.5 µM [inhibitor, partial curve]",
CCn1c(CN2CCC(C)CC2)nc2cc(NC(=O)c3cccc([N+](=O)[O-])c3)ccc21,active: 56.2 µM,
COc1ccc(NS(=O)(=O)c2cc(-c3cnc(C4CC4)o3)ccc2C)cc1,"inconclusive: 35.5 µM [inhibitor, partial curve]",
COc1ccc(C2Nc3ccccc3C(=O)N2Cc2ccccc2C)cc1COc1ccc(NC(C)=O)cc1 (stereo unspecified),"inconclusive: 56.2 µM [inhibitor, partial curve]",
O=C1CC(=O)Nc2cc(S(=O)(=O)Nc3cccc(Br)c3)ccc2N1,inactive,
COc1cc(C(C)=NNC(=O)c2ccncc2)ccc1O,active: 31.6 µM,
O=C(NC1CC1)C1Nc2ccc(OC(F)(F)F)cc2C2C=CCC12 (stereo unspecified),inactive,
CCOc1ccc2[nH]c(=O)c(CN(CCN3CCCC3)C(=S)Nc3ccccc3OCC)cc2c1,inactive,
CNC(=S)NNC(=O)COc1ccc(C)c(C)c1,active: 50.1 µM,

SMILES,Potency,"activity change, negative = inhibition"
Cn1c(SCc2ccccn2)nc2c1c(=O)[nH]c(=O)n2C,"inconclusive: 39.8 µM [inhibitor, single point]",
O=C(COC(=O)c1cccc(C(=O)OCC(=O)NC2CC2)n1)NC1CC1,"inconclusive: 39.8 µM [inhibitor, single point]",
Cc1ccc(C(=O)OCC(=O)Nc2ncc(Cl)cc2Cl)cc1NC(=O)c1ccco1,"inconclusive: 79.4 µM [inhibitor, partial curve]",
O=C(CSc1nc(-c2ccccc2)cc(=O)[nH]1)Nc1ccccc1,inactive,
CCOc1ccc(NC(=S)NCc2ccc3[nH]c(C)cc3c2)cc1,active: 50.1 µM,
COc1ccccc1/C=C/C=c1\sc2nc(=O)c(Cc3ccccc3)nn2c1=O,active: 56.2 µM,
O=C(Nc1cc(=O)[nH]c2ncnn12)c1ccccc1,inactive,
COC(=O)c1ccccc1NC(=S)N(Cc1ccc2c(c1)OCO2)Cc1cc2ccc(C)cc2[nH]c1=O,inactive,
O=C(Nc1ccc(O)c(-c2nc3ccccc3s2)c1)c1cc(=O)c2ccccc2o1,inactive,
COc1cc(OC)c(NC(=O)C(C)n2nc(-c3ccc(C)c(C)c3)ccc2=O)cc1Cl (stereo unspecified),"inconclusive: 39.8 µM [inhibitor, partial curve]",
O=[N+]([O-])c1ccccc1Nc1cccc(F)c1,active: 44.7 µM,
Fc1ccc(CNc2ccc(N3CCN(Cc4ccccc4)CC3)cc2)cc1,active: 20 µM,
Cc1cccc(N2CCN(C(=O)c3c4c(nc5ccccc35)C(=O)N(C3CCCCC3)C4)CC2)c1C,"inconclusive: 56.2 µM [inhibitor, partial curve, poor fit]",
COc1cccc(C2c3c(ncn(-c4cccc(C#N)c4)c3=N)Oc3ccc4ccccc4c32)c1 (stereo unspecified),active: 79.4 µM,
COc1ccccc1NS(=O)(=O)c1cc(NC(=S)NCCN2CCOCC2)ccc1N1CCOCC1,"inconclusive: 79.4 µM [inhibitor, partial curve]",
Cc1ccc(-c2ncccc2OC(=O)C23CC4CC(CC(C4)C2)C3)cc1,"inconclusive: 100 µM [inhibitor, single point]",
CCOc1cc(/C=N/NC(=O)c2cc(C3CC3)[nH]n2)ccc1O,active: 50.1 µM,
CC(C)c1ccc(NC(=O)CSC2=Nc3ccccc3C3=NC(CC(=O)NCc4ccco4)C(=O)N23)cc1 (stereo unspecified),"inconclusive: 50.1 µM [inhibitor, partial curve]",
COc1cccc(NS(=O)(=O)c2ccc3[nH]cc(C(=O)N(C)Cc4ccco4)c(=O)c3c2)c1,"inconclusive: 56.2 µM [inhibitor, partial curve, poor fit] and inconclusive: 10 µM [inhibitor, full curve, poor fit]",
COc1ccc(S(=O)(=O)Nc2c(O)ccc3ccccc23)cc1OC,active: 79.4 µM,
Cc1nnc(N2CCC(C(=O)NCc3cccc(Cl)c3)CC2)c2nn(-c3ccccc3)c(C)c12,"inconclusive: 50.1 µM [inhibitor, partial curve]",
CCc1ccccc1N1CC(c2nc3ccccc3n2CCC2CCCCC2)CC1=O (stereo unspecified),inactive,
O=C(COC(=O)C1CCCCC1C(=O)N1CCc2ccccc21)NCc1ccco1 (stereo unspecified),,inactive: -6.11% [at 11.4 µM]
